The text below walks through data of PubChem BioAssay AID463173 (ICCB-Longwood Screening Facility, Harvard Medical School, 2010).

About 1,700 (3.3%) of roughly 52,000 compounds were called active. Cut-off read from the data, not from the text of the source: active = survival mostly below about 52% (no sharp cut-off); inactive = mostly above about 56%. This is one part of the list.

For this test, the system named is Wild type. Description: S. aureus survival, RN4220 and DeltatarO strains – OD600, teichoic acid synthesis inhibitors, primary screen (AID 463173). The conditions noted are these: S. aureus RN4220 wild type/DeltatarO growth, OD600, 18 h, hits give low values, screened at 18.75 µg/mL (by protocol).
As to `CCn1c(=O)sc2cc(NS(=O)(=O)c3ccc(F)c(C)c3)ccc21`, the survival is inactive: 67%.

On to `Cc1ccc(CSc2cn(CC(=O)N3CCCC3)c3ccccc23)cc1`, for which the survival is inactive: 84%.

In the case of `O=C(CCS(=O)(=O)c1cc(Br)cc2c1N(C(=O)C1CC1)CC2)NCc1ccc(Cl)cc1`, the survival is inactive: 87%.

Regarding `CC(=O)Nc1cc(OC(C)=O)c2nonc2c1OC(C)=O`, the survival is inactive: 74%.

As for `Cc1ccc(NC(=O)Cn2cc(S(=O)(=O)c3ccc(C)cc3)c(=O)c3cc4c(cc32)OCO4)cc1`, the survival was inactive: 79%.

As to `Cc1ccc(-c2nc(SCCOc3ccccc3C)n3[nH]c(=O)cc3n2)cc1`, the survival is inactive: 121%.

Regarding `COc1ccc(C2c3c(n(C)c4ccccc34)C(=O)N2CC(=O)Nc2ccc(C)c(Cl)c2)cc1` (stereo not given), the survival is inactive: 117%.

As to `O=C1Nc2ccccc2C1=Nc1ccc(Br)cc1`, the survival was inactive: 103%.

On to `CCc1ccccc1N(CC)C(=O)c1c(C)oc2ncnc(N3CCOCC3)c12`, for which the survival was inactive: 70%.

Regarding `CCOC(=O)C1CCN(c2nc3c(S(=O)(=O)c4ccccc4)nnn3c3ccsc23)CC1`, the survival is inactive: 80%.

In the case of `CC1=C(c2ccc(C)c(C)c2)S(=O)(=O)N=C1N1CCC(C(=O)N2CCC(C(N)=O)CC2)CC1`, the survival was active: -4%.

For `O=c1c2oc3ccccc3c2n(Cc2ccc(Cl)cc2)c(=O)n1Cc1ccco1`, the survival was inactive: 84%.

Consider `O=C1COc2cc(S(=O)(=O)NCc3ccco3)c(Cl)cc2N1`, for which the survival is inactive: 73%.

Turning to `COc1ccc(NC(=O)Nc2nnc(C)s2)cc1`, the survival was inactive: 63%.

For `Cc1ccccc1C(=O)Nc1ccc(OCc2cc(=O)n3cccc(C)c3n2)cc1`, the survival was inactive: 72%.

`CCN(C(=O)C1CCC(CNS(=O)(=O)c2cccc3nsnc23)CC1)c1ccc(C)c(C)c1` (stereo not given): the survival is inactive: 39%.

Consider `Cc1cccc(CN2CCC(CNC(=O)c3c(C)oc4ncnc(N5CCCCC5)c34)CC2)c1`, for which the survival is inactive: 98%.

For the compound `O=C(c1cccs1)N1CCCc2ccccc21`, the survival is inactive: 124%.

In the case of `Nc1nnc(SCc2ccccc2)s1`, the survival is inactive: 87%.

With `Cc1cccc(C(=O)Nc2sc3c(c2C(=O)N2CCCCC2)CCC(C)C3)c1` (stereo not given), the survival was active: -1%.

On to `CC(=O)N1CCOc2cc(S(=O)(=O)NC(C)c3ccccc3)c(Cl)cc21` (stereo not given), for which the survival was inactive: 90%.

For `Cc1oc2ccc(O)c(CN(C)Cc3ccccc3)c2c1C(=O)Nc1ccccc1`, the survival was inactive: 105%.

With `O=C(CCc1cn(Cc2ccc(F)cc2)c2ccccc12)NCCc1ccc(Cl)cc1`, the survival is inactive: 99%.

As for `CCN(CC)CCNC(=O)c1c(C)oc2ncn(C)c(=O)c12`, the survival was inactive: 81%.

`Cn1cnc(S(=O)(=O)N2CCC(C(=O)NCc3ccccc3Cl)CC2)c1`: the survival is inactive: 128%.
